Laboratory results from PubChem BioAssay AID489043 (National Center for Advancing Translational Sciences (NCATS), 2010).
Inconclusive results, whose numbers are uncertain, are shown with a selection of clear calls. Potencies beside an inconclusive call are fits to weak or partial responses and may not hold up. The source made the active and inactive calls. Calls follow the shape of the dose curve; as a rule, active = well fitted activation curve with a large enough effect; inconclusive = small, poorly fitted or top-dose-only effect; inactive = flat fitted curve, though single readings scatter.

What follows are molecules tested against Relaxin receptor 2 (Homo sapiens) (UniProt Q8WXD0) (assay: qHTS Assay for Agonists of the Relaxin Receptor RXFP1: RXFP2 Hit Validation). Conditions: HEK293 RXFP2 cAMP TR-FRET, 30 min; series mostly up to 115 µM.
In short: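 Concentration-response EC50s (Hill equation) come from a cAMP TR-FRET assay in HEK293 RXFP2 cells, compound for 30 min at 37C with PDE4 inhibitor.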
Also: nearly all actives have a fitted effect of over 65% in size.
Potency is read from the fitted curve at half-maximal effect; tags tell the direction and shape of the fitted curve.

Chain of UniProt Q8WXD0 (Q8WXD0 whole entry, looked up): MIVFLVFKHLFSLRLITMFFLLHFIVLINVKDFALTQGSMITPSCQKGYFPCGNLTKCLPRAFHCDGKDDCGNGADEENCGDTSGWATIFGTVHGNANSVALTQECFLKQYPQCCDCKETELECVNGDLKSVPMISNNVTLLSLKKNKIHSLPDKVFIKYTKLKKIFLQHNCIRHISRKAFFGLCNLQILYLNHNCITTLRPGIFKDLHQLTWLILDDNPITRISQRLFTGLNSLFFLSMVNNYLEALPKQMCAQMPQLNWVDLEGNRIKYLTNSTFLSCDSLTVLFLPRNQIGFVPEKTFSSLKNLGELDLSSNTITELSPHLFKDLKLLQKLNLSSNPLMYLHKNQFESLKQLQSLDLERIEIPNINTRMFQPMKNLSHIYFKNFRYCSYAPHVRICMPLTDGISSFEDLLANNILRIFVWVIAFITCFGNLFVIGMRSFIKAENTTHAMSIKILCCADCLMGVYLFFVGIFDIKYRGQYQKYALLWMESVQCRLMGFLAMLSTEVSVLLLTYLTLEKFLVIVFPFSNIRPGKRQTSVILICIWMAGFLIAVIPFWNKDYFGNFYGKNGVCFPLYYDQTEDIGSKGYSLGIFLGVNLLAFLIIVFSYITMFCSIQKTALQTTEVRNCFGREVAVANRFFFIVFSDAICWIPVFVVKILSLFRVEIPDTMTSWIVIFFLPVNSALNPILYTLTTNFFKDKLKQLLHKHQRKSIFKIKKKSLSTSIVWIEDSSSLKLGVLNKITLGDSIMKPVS

SMILES	Potency
COC(=O)c1sc(N2C(=O)C(O)=C(C(=O)c3ccc(C)o3)C2c2cccs2)nc1C (stereo not given)	inconclusive: 6.9 µM [activator, partial curve]
CCn1c(SCC(=O)Nc2c(C)n(C)n(-c3ccccc3)c2=O)nc2c1c(=O)n(C)c(=O)n2C	inconclusive: 30.9 µM [activator, partial curve]
Cn1c([N+](=O)[O-])cnc1N1CCN(c2nncs2)C1=O	inconclusive: 27.5 µM [activator, partial curve]
CCN(CC)S(=O)(=O)c1ccc2c(c1)N(CC(=O)NCc1ccccn1)C(=O)CO2	active: 34.6 µM
O=C(COc1ncnc2scc(-c3ccccc3)c12)NCCN1C(=O)CSC1=O	inconclusive: 17.3 µM [activator, partial curve]
NS(=O)(=O)c1cccc(NC(=O)CSc2ncnc3ccccc23)c1	inconclusive: 38.9 µM [activator, partial curve]
Cc1cc(NC(=O)c2ccccc2F)nc2c1c(=O)oc1ccccc12	active: 15.4 µM
O=C(Nc1ncccn1)c1ccc([N+](=O)[O-])o1	inconclusive: 24.5 µM [activator, partial curve]
Nc1cc2ccncc2c2ccccc12	inactive
Cc1cc(=O)n2nc(N3CCCC3C(=O)Nc3ccccc3C)sc2n1 (stereo not given)	inconclusive: 43.6 µM [activator, partial curve]
CCc1nn(CC(=O)NCCCN2CCOCC2)c(=O)c2cc3sccc3n12	inactive
CCn1c(=O)c2sccc2n2c(CCCC(=O)NCc3cccnc3)nnc12	inactive
COc1cccc(/C=N/NC(=O)Cn2cnc3c2c(=O)n(C)c(=O)n3C)c1	inconclusive: 34.6 µM [activator, partial curve]
CCS(=O)(=O)c1nc(S(=O)(=O)c2ccc(C)cc2)c(N2CC(C)OC(C)C2)s1 (stereo not given)	inconclusive: 38.9 µM [activator, partial curve]
CCS(=O)(=O)c1nc(S(=O)(=O)c2ccc(C)cc2)c(N2CCN(C)CC2)s1	inconclusive: 24.5 µM [activator, partial curve]
N#C/C(=C\c1c(N2CCC(C(N)=O)CC2)nc2ccccn2c1=O)C(=O)NC1CCCCC1	inconclusive: 61.6 µM [activator, partial curve]
O=C(Nc1ccc(Cl)cc1)Nc1ccccc1Sc1ncc([N+](=O)[O-])s1	inactive
CCOC(=O)c1nnn2c1nc(SCC(C)=O)c1ccccc12	inconclusive: 27.5 µM [activator, partial curve]
O=C(Nc1cccc(C(F)(F)F)c1)c1ccccc1NC(=O)C1CCCCC1	inactive
Cn1c(=O)c2sccc2n2c(CCCC(=O)NCc3cccnc3)nnc12	inconclusive: 19.4 µM [activator, partial curve]
